The source of these data is ChEMBL document CHEMBL4888484, “Replenishing the malaria drug discovery pipeline: Screening and hit evaluation of the MMV Hit Generation Library 1 (HGL1) against asexual blood stage Plasmodium falciparum ,using a nano luciferase reporter read-out” (2022).

About 540 (0.36%) of roughly 150,000 compounds showed an effect of 50% or more. The list shows a part of the results.

The assay deals with Plasmodium falciparum. The assay is described as follows: Primary screen in NF54 nanoGlo assay, in single point, at 2uM, 72h; a lower Z score goes with more inhibition. In kind it is functional, Erythrocyte. The note with it: timepoint 72 hour.
On to `CCc1nc2ccc(Cl)cn2c1C(=O)N1CCOCC12CCC2`, for which the “% Inhibition” value is reported as 5% and the Z score is recorded as -0.63.
In the case of `c1ccc(-n2nnc(-c3noc(-c4cccs4)n3)c2-c2ccncc2)cc1`, the “% Inhibition” value was -19% and the Z score came out at 3.7.
Turning to `N#Cc1cccc(CN2CCN(c3ccncc3)C[C@@H](O)C2)c1`, the “% Inhibition” value is recorded as -8% and the Z score worked out at 0.74.
On the same counts, the results for `N#CC1(CNC(=O)c2cccnn2)CCCCC1` are -6% and 0.7.
In the case of `COc1cccc(-c2c[nH]c([C@@H]3CCCN3C(=O)c3cnn(C)c3)n2)c1`, the “% Inhibition” value was -7% and the Z score came out at 0.96.
Take `C[C@@H](C(=O)NCCc1cc[nH]n1)N1CCN(C)CC1`: the “% Inhibition” value is recorded as -2% and the Z score came out at 0.36.
On the same counts, the results for `COc1ccc(C(=O)Cn2c(N3CCCCC3)nc3c2c(=O)n(C)c(=O)n3C)cc1OC` are -5% and 0.53.
On the same counts, the results for `C[C@H](NC(=O)C1CC=CC1)C(C)(F)F` are 3% and -0.68.
On the same counts, the results for `OC1CCN(Cc2ccc(CNc3ccc(F)cn3)cc2)CC1` are -6% and 0.93.
`Cn1nccc1CCC(=O)N1CCCC1CC1CC2CCC1C2` (configuration not stated): the “% Inhibition” value is reported as -12% and the Z score is 1.21.
On the same counts, the results for `COc1ccc(Cc2n[nH]c(CCNC(C)=O)n2)cc1OC` are 4% and -0.41.
`O=C(Cn1ccnn1)N(Cc1cccc(Br)c1)CC1CC1`: the “% Inhibition” value is -9% and the Z score was found to be 1.58.
With `COc1ccc2[nH]c3c(c2c1)CCN(C)C31CCN(C(=O)c2ccoc2)CC1`, the “% Inhibition” value is 9% and the Z score was -1.69.
For the compound `CCCCc1noc([C@H](C)NCCn2cc(C)cn2)n1`, the “% Inhibition” value was -14% and the Z score was found to be 1.57.
As to `OC[C@H](Cc1ccc(F)cc1)NCc1ccc(Cl)cc1-n1cncn1`, the “% Inhibition” value is on record as -4% and the Z score was determined as 0.44.
The corresponding values for `CC1(C)COc2c(CN3CCC[C@H]3c3nc(-c4ccccn4)no3)cc(Cl)cc21` are -13% and 2.47.
Turning to `Cn1cccc1[C@@H](C#N)N1CCCCCC1`, the “% Inhibition” value is given as -15% and the Z score amounted to 1.72.
On the same counts, the results for `COc1ccc(S(=O)(=O)NC[C@H]2COCc3nc4c(C)cccc4n32)cc1` are -2% and 0.39.
For the compound `O=C1NC(=O)C2(CCN(C(=O)c3csc4ccccc34)CC2)N1`, the “% Inhibition” value is recorded as -2% and the Z score worked out at 0.29.
On the same counts, the results for `O=C(Nc1ccccc1C(=O)N1CCC(c2nc3ccccc3o2)CC1)c1ccco1` are -3% and 0.29.
The corresponding values for `COC(C)C(N)=NOC1CCCN(c2ccc(F)cc2C)C1=O` (configuration not stated) are 0% and -0.09.
For `Cc1cc(C)cc(NC(=O)[C@@H]2CCCN2S(=O)(=O)c2ccc3c(c2)NC(=O)CO3)c1`, the “% Inhibition” value is recorded as 1% and the Z score is reported as -0.08.
`C#CCNC(=O)c1ccc(=O)n(Cc2nc(C(F)(F)F)cs2)c1`: the “% Inhibition” value is on record as -18% and the Z score was 2.88.
The corresponding values for `CCOc1cc(N2CC[C@@](O)(CN(C)C)C2)nc(C)n1` are -1% and 0.15.
The corresponding values for `O=C(c1ccc(-c2nc(-c3ccc(F)cc3)no2)cc1)N1CCN(c2ccccc2)CC1` are -4% and 0.42.
`CC[C@H]1CCCCN1C(=O)c1nc2ncccc2o1`: the “% Inhibition” value is reported as -9% and the Z score is 0.82.
Consider `CC(=O)N1CCCN(CC(=O)N2CCC[C@H]2c2cccs2)CC1`, for which the “% Inhibition” value is given as 4% and the Z score is given as -0.57.
The corresponding values for `N#Cc1c(NCCOC[C@H]2CCCO2)nc2ccccn12` are -12% and 1.41.
Turning to `O=C(NCc1cccnc1)c1csc(CN2CCC(Cc3ccccc3)CC2)n1`, the “% Inhibition” value is reported as 5% and the Z score is listed as -0.56.
The corresponding values for `CCCn1nnnc1CN1CCO[C@@H](C)C1` are -3% and 0.33.
On the same counts, the results for `OCc1nc2cc(-c3ccc4c(c3)OCCO4)ccc2[nH]1` are -16% and 2.66.
As to `c1ccc(-c2ncc[nH]2)c(OCCCn2ccnc2)c1`, the “% Inhibition” value is given as -7% and the Z score came to 1.21.
The corresponding values for `Cc1n[nH]c(C)c1S(=O)(=O)NCCn1nc2c(cc1=O)CCC2` are 13% and -1.68.
Take `COc1ccc2c(c1)CNCC[C@H]1COC(=O)N21`: the “% Inhibition” value worked out at 33% and the Z score is listed as -3.7.
For `O=C(COC(=O)c1cccnc1)Nc1ccc2c(c1)OCO2`, the “% Inhibition” value was determined as 2% and the Z score is reported as -0.21.
On the same counts, the results for `Cc1cccc(CN2CCN(C(=O)CN3C(=O)CNC3=O)[C@@H](C)C2=O)c1` are 5% and -1.01.
On to `CCOc1ccc2c(c1)C(=C1SC(C(=O)OC)=C(C(=O)OC)S1)C(=S)C(C)(C)N2C(=O)COc1ccc(F)cc1`, for which the “% Inhibition” value is listed as -18% and the Z score was 1.91.
For `CC(C)=Cc1oc2c(Cl)cc(Cl)cc2c1N1CC(C)OC(C)C1` (configuration not stated), the “% Inhibition” value was found to be 0% and the Z score turned out to be 0.02.
As for `COc1cc(NC(=O)N2CCCCCCC2)ccc1N1CCOC1=O`, the “% Inhibition” value is -9% and the Z score is 1.24.
Turning to `Fc1cc(Cl)ccc1CN1CCO[C@H](C2CC2)C1`, the “% Inhibition” value is given as -14% and the Z score was determined as 2.59.
On the same counts, the results for `CCCc1ccc(-c2ccc(-c3c(-c4ccc(Cl)cc4)cnn3C(=O)c3ccc(C)cc3)cc2)c(F)c1` are 0% and -0.05.
In the case of `O=C(Cn1ncnn1)N1CCc2cc(Br)cc(F)c2C1`, the “% Inhibition” value worked out at 6% and the Z score is -0.93.
`CCn1nccc1-c1cc(OC)ns1`: the “% Inhibition” value was 6% and the Z score was -0.64.
On the same counts, the results for `Cc1ccccc1N1CCC(NCCn2ccnn2)CC1` are -2% and 0.4.
The corresponding values for `CCc1n[nH]c(NS(=O)(=O)c2cccc(CC#N)c2)n1` are -10% and 1.39.
In the case of `Cc1cccnc1NC(=O)c1cc(Cl)c2c(c1)OCCCO2`, the “% Inhibition” value was 5% and the Z score was -1.06.
`O=C(CNc1cccc(Cl)c1F)N1CCC[C@H]1c1cccs1`: the “% Inhibition” value was found to be 1% and the Z score was -0.14.
On the same counts, the results for `CN(C[C@H]1COc2ccccc2O1)C(=O)c1cc2sccc2[nH]1` are -7% and 1.05.
On the same counts, the results for `Cc1csc(-c2nc3cc(Cl)ccc3c(=O)[nH]2)n1` are 23% and -2.57.
The corresponding values for `N#Cc1ccc(-c2cc(N3CCNCC3)[nH]n2)cc1` are -20% and 2.92.
Take `CO[C@H]1CCCN(C(=O)Nc2c(C(F)(F)F)c(C)nn2C)CC1`: the “% Inhibition” value is -2% and the Z score is given as 0.31.
The corresponding values for `CCOc1cccc(CN2CCC3(CC2)c2ccccc2[C@@H](NC(=O)C(C)C)[C@@H]3OC)c1` are -5% and 0.84.
On the same counts, the results for `O=C(Nc1cnns1)[C@H]1CCCOC1` are 10% and -1.42.
In the case of `Cn1cc(-c2cc3n(n2)CCCN3C(=O)CCC(=O)NC2CCCCC2)c2ccccc21`, the “% Inhibition” value is recorded as -12% and the Z score amounted to 1.56.
With `CC(C)(C#N)c1ccccc1Br`, the “% Inhibition” value is listed as -2% and the Z score worked out at 0.37.
Take `CC(C)c1noc(N2CC3CCC2C3)n1` (configuration not stated): the “% Inhibition” value is reported as -2% and the Z score turned out to be 0.19.
Turning to `CN1CCN(C(=O)C2(C#N)CCCC2)c2cc(Cl)ccc21`, the “% Inhibition” value is reported as -5% and the Z score was 0.79.
In the case of `CN(C[C@H]1CCOC1)c1ccnc(Cc2ccccc2)n1`, the “% Inhibition” value stood at 2% and the Z score is -0.21.
Regarding `CCn1cnnc1[C@H](C)NS(=O)(=O)c1cccnc1`, the “% Inhibition” value is listed as 3% and the Z score is reported as -0.39.
Take `CCc1nnc(NC(=O)CNc2ccc(C)cc2)s1`: the “% Inhibition” value is -15% and the Z score is 1.7.
As to `O=C(COc1ccc2c(c1)C(=O)CC2)Nc1nc[nH]n1`, the “% Inhibition” value was found to be 9% and the Z score is -1.17.
In the case of `CCCn1c(C)nnc1COC(=O)c1scnc1C`, the “% Inhibition” value is given as -1% and the Z score amounted to 0.26.
As for `CCOc1ccc(C(=O)N2C[C@@H](CC(=O)O)[C@@H](c3cn(C)nn3)C2)o1`, the “% Inhibition” value is recorded as -10% and the Z score was found to be 1.28.
Turning to `O=C1CN(CCCO)C(=O)CCc2ccc(cc2)Oc2cccc(c2)CO[C@H]2CCN(C(=O)c3cn4cccnc4n3)C[C@@H]2N1`, the “% Inhibition” value came out at 5% and the Z score is recorded as -0.73.
On the same counts, the results for `Cc1nn(C)cc1-c1c(C)c(-c2ccc3c(c2)OCO3)nc(N)c1C#N` are -15% and 1.45.
The corresponding values for `NC(=O)c1noc([C@@H]2CCCN2S(=O)(=O)Cc2c(F)cccc2F)n1` are -3% and 0.36.
The corresponding values for `CC1=C(C)CC(C(=O)Nc2nc(-c3ccc(Cl)cc3)cs2)C(C(=O)O)C1` (configuration not stated) are -10% and 1.63.
Consider `Cc1ccc(N2CCN(c3ccc(C)cc3)C23C(=O)N(Cc2ccccc2Cl)c2ccccc23)cc1`, for which the “% Inhibition” value is reported as -5% and the Z score amounted to 0.64.
Take `Cc1nc(Nc2ccc(Cl)cn2)sc1C(=O)NCc1ccc(F)cc1F`: the “% Inhibition” value was -1% and the Z score amounted to 0.14.
On the same counts, the results for `O=C(CCn1cncn1)Nc1nc2c(s1)CCCCCC2` are -1% and 0.11.
For `COc1ccc(-c2noc([C@@H]3CCCN3C3CCOCC3)n2)cc1`, the “% Inhibition” value came out at 1% and the Z score is -0.19.
As to `CN(CC(F)(F)F)C(=O)Nc1cc(Cl)ccc1Cl`, the “% Inhibition” value is -3% and the Z score is 0.48.
Consider `Cc1ccc(C(=O)c2cn(Cc3ccc(N4CCCC4=O)cc3)c3nc(C)ccc3c2=O)c(C)c1`, for which the “% Inhibition” value was -6% and the Z score was 0.76.
On the same counts, the results for `O=c1[nH]c(=O)n(C2CC2)cc1CNC1CCCCCC1` are -1% and 0.17.
For `O=C(NC[C@H]1CCN(S(=O)(=O)c2cccs2)C1)N1CC(CC2CC2)C1`, the “% Inhibition” value was -9% and the Z score amounted to 1.01.
The corresponding values for `CN(CCc1ccncc1)Cc1noc(-c2ccsc2)n1` are -9% and 1.46.
Consider `O=C(Cc1ccc2[nH]ncc2c1)N1Cc2ncccc2N2CCC[C@H]2C1`, for which the “% Inhibition” value is listed as -7% and the Z score turned out to be 0.9.
Regarding `Cc1nc(C(C)C)cc(N2CCN(Cc3ccc4c(c3)OCO4)CC2)n1`, the “% Inhibition” value is reported as -7% and the Z score came out at 1.34.
Take `COc1ccccc1C(=O)N(CC(=O)N(Cc1ccco1)C[C@H]1CCCO1)CC(C)C`: the “% Inhibition” value is given as -9% and the Z score amounted to 1.64.
The corresponding values for `CC1CCC(C(=O)O)C(C)N1Cc1cccnc1C(F)(F)F` (configuration not stated) are -12% and 1.87.
On the same counts, the results for `CCc1nc(C)c(C(=O)NC(C)(C)CC)s1` are -10% and 1.07.
The corresponding values for `CCn1cc(C(=O)N2CCC(Cc3ccc(CO)cc3)CC2)cn1` are -9% and 1.65.
Regarding `O=C1CN(S(=O)(=O)c2ccc3ncsc3c2)CN1CC(F)(F)F`, the “% Inhibition” value is on record as -1% and the Z score turned out to be 0.09.
For the compound `CCNC(=O)N(CC(=O)N1CCc2sccc2[C@@H]1COc1cccc(F)c1)CC1CC1`, the “% Inhibition” value was -9% and the Z score was found to be 1.69.
In the case of `O=C(NC[C@H](O)c1ccc(-c2ccsc2)cc1)c1ccc(Cl)s1`, the “% Inhibition” value came out at 8% and the Z score is recorded as -1.06.
Regarding `C[C@@H]1CNCCN1S(=O)(=O)c1cccc(Br)c1`, the “% Inhibition” value is recorded as -14% and the Z score worked out at 2.19.
